Laboratory results: PubChem BioAssay AID686978 (National Center for Advancing Translational Sciences (NCATS), 2013)
The whole screen tested about 420,000 compounds, of which about 64,000 (15%) were called active. This list was built around the results that the source calls inconclusive (neither active nor inactive); the mix of calls is not that of the screen. The call rests on the fitted dose curve; in most records, active means well fitted inhibition curve with a large enough effect; inconclusive means small, poorly fitted or top-dose-only effect; inactive means flat fitted curve, though single readings scatter. No potency is given beside an inconclusive call; the fits are too rough.

Test: qHTS for Inhibitors of human tyrosyl-DNA phosphodiesterase 1 (TDP1): qHTS in cells in absence of CPT; further: nearly all actives have a fitted effect of over 55% in size
Conditions: DT40 Tdp1-/- hTDP1 cells, no CPT, ATP luminescence, 48 h; activity change, negative = growth inhibition: at 46.2 µM (top of the series) unless noted
Method in brief: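 Chicken DT40 Tdp1-/- cells stably complemented with human TDP1 were seeded at 400 cells/well with DMSO in place of 20 nM camptothecin. After compound pinning, cells grew at least 48 hr at 37 °C; viability read by CellTiter-Glo luminescence.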
On the % scale 0 is the no-effect control and ±100 the full control effect; potency means the concentration at half of the fitted maximal effect; tags describe the fitted curve by direction and shape.

Row | Compound | Potency | activity change, negative = growth inhibition
1 | COc1ccccc1C=NNC(=O)NN=Cc1ccccc1OC | inconclusive [inhibitor, single point] | 
2 | CCOC(=O)c1cnc2c(C)c(Cl)ccc2c1N1CCN(CC)CC1 | inconclusive [inhibitor, single point] | 
3 | C/C(=N\N(Cc1ccccc1)c1ccccc1)c1cccnc1 | inconclusive [inhibitor, single point] | 
4 | COC(=O)c1cccc(NC(=O)c2cccs2)c1C |  | inactive: -23.6%
5 | N=c1nc2n(cc1F)C1OC(CO)C(O)C1O2 (stereo unspecified) | active: 0.13 µM | 
6 | CCOc1ccc(-n2c(SCC(=O)Nc3cc(C(=O)O)ccc3Cl)nc3ccccc3c2=O)cc1 |  | inconclusive: -32.9% [inhibitor]
7 | COc1ccc(-c2nc(C(N)=O)c3[nH]c(=O)n(-c4cccc(C)c4)c3n2)c(OC)c1 | active: 23.1 µM | 
8 | CC(C)n1cnc2c(NCc3ccccc3)cc(N[C@H](C)CO)cc21 | active: 4.61 µM | 
9 | O=C(Nc1cccc2ccccc12)N1CCCN(c2c(Cl)cncc2Cl)CC1 | inconclusive [inhibitor, single point] | 
10 | O=C(NC1CC(=O)N(c2ccccc2)C1)c1cccs1 (stereo unspecified) | inconclusive [inhibitor, single point] | 
11 | COc1ccc(Cl)cc1NC(=O)CN(C)C1CCS(=O)(=O)C1 (stereo unspecified) |  | inconclusive: -35.3% [inhibitor]
12 | COc1cc([N+](=O)[O-])ccc1N/C=C/C(=O)c1cccs1 | inconclusive [inhibitor, single point] | 
13 | CCOC(=O)N1CCc2c(sc3c2c(=O)n(CCc2ccccc2)c(=O)n3Cc2ccc(C)cc2C)C1 | active: 23.1 µM | 
14 | CCCCN(Cc1ccccc1)C1CCN(Cc2ccccc2)CC1 | inconclusive [inhibitor, single point] | 
15 | c1ccc(CNc2ncnc3[nH]ncc23)cc1 | active: 23.1 µM | 
16 | Cc1nn(CCCC(=O)Nc2nccs2)c(C)c1[N+](=O)[O-] |  | inactive: -4.65%
17 | COc1ccc(-c2nc(CCNC(=O)Cc3ccc(F)cc3)cs2)cc1 | active: 18.4 µM | 
18 | O=C(NNc1ccc([N+](=O)[O-])cc1)C1CC1c1ccccc1 (stereo unspecified) | inconclusive [inhibitor, single point] | 
19 | Cc1ccc(S(=O)(=O)N(C)CCCC(=O)Nc2ccc(C)cc2C)cc1 | inconclusive [inhibitor, single point] | 
20 | O=C(NCC1CCCO1)C(c1ccncc1)N(Cc1cccs1)C(=O)CN1C(=O)c2ccccc2S1(=O)=O (stereo unspecified) |  | inactive: 0.337%
21 | CCC/C=C/c1ccc(CN2C(CC(C)C)C(=O)N(Cc3cn(CC4CCCCC4)nn3)CCS2(=O)=O)cc1 (stereo unspecified) | active: 23.1 µM | 
22 | Cc1cc(C)c2c(N)c(C(=O)Nc3c(C)n(C)n(-c4ccccc4)c3=O)sc2n1 |  | inactive: 25.8%
23 | COC(=O)c1ccsc1NC(=O)C1COc2ccccc2O1 (stereo unspecified) | inconclusive [inhibitor, single point] | 
24 | Cc1cccc(C(=O)Nc2nc3c(s2)CCCC3)c1 | active: 18.4 µM | 
25 | CCC(=O)N1CCc2cc(Br)cc(S(=O)(=O)N3CCCC(C(=O)NC(C)(C)C)C3)c21 (stereo unspecified) | inconclusive [inhibitor, single point] | 
26 | N=c1oc2ccc(Cl)cc2cc1C(=O)Nc1ccc(F)cc1 | inconclusive [inhibitor, single point] | 

Row | Compound | Potency | activity change, negative = growth inhibition
27 | Cc1ccc2[nH]c3nc(NN)nnc3c2c1 | inconclusive [inhibitor, partial curve, poor fit] | 
28 | N#Cc1ccccc1OCC(=O)NCCNC(=O)COc1ccccc1C#N |  | inactive: -6.54%
29 | O=C(NCCc1ccc(Cl)cc1)c1cc(-c2ccccn2)nc2ccccc12 | inconclusive [inhibitor, single point] | 
30 | COc1ccc(Cc2nnc(SCC(=O)N(C)CC(=O)Nc3ccc(C)cc3)o2)cc1 | inconclusive [inhibitor, single point] | 
31 | Cc1nc(NCC2CCCO2)nc2c1C(=O)CC(C)C2 (stereo unspecified) |  | inactive: -3.71%
32 | Cc1[nH]nc2c1C(c1ccc(N(C)C)cc1)C1=C(CC(C)(C)CC1=O)N2 (stereo unspecified) | inconclusive [inhibitor, full curve, poor fit] | 
33 | CSc1ccc(CCNC(=O)c2ccc3c(c2)nc2n3CCC(C)C2)cc1 (stereo unspecified) | active: 13 µM | 
34 | COc1ccc(/C=N/NC(=O)c2ccoc2C)cc1COc1c(C)cccc1C | active: 14.6 µM | 
35 | CCc1nc(Sc2nc(C)cc(C)n2)c2oc3ccccc3c2n1 | active: 20.6 µM | 
36 | Cc1cc(C2C(=O)NC(=O)C2=O)c(C)cc1Br (stereo unspecified) |  | inactive: -8.63%
37 | O=C(Nc1cccc(Br)c1)c1cccc(OC(=S)N2CCOCC2)c1 | inconclusive [inhibitor, single point] | 
38 | Brc1cccc(CNc2nc3ccccc3n2CCN2CCOCC2)c1 | active: 11.6 µM | 
39 | CNc1nc(Nc2ccc(C)c(Cl)c2)c2cnn(C)c2n1 | active: 14.6 µM | 
40 | CCOC(=O)COc1ccc2cc(C(=O)OCC)c(=O)oc2c1 |  | inactive: -14.3%
41 | CCc1ccccc1NC(=O)N1CC(CC)Oc2ccc(Cl)cc21 (stereo unspecified) | inconclusive [inhibitor, single point] | 
42 | CCc1ccc(Sc2cc(C(=O)NCCN3CCOCC3)c3ccccc3n2)cc1 | active: 14.6 µM | 
43 | Cc1ccc(C)n1-c1ccc(C(=O)NN)s1 | inconclusive [inhibitor, single point] | 
44 | COc1ccc(S(=O)(=O)N2CC(C)N(C(=O)N(C)C)C2C)cc1 (stereo unspecified) |  | inactive: 2.99%
45 | O=C(NC(c1ccccc1)c1ccccc1)c1ccc(Br)o1 |  | inconclusive: -31.3% [inhibitor]
46 | COc1ccc(C(=O)/C=C/N(C)C)cc1OC | inconclusive [inhibitor, partial curve, poor fit] | 
47 | O=C1C(=O)N(C2CCN(C(=O)c3ccc(F)cc3)CC2)CCN1Cc1ccc(F)cc1 |  | inactive: -0.818%
48 | Cc1cccc2c(=O)n3c(cc12)-c1[nH]c2ccccc2c1CC3 |  | inconclusive: -31.7% [inhibitor]
49 | Cn1nnc2cc(C(=O)NCCC3=CCCCC3)ccc21 |  | inactive: -28%
50 | O=C(c1ccc2c(c1)OCO2)N(c1ccc(F)cc1)C1C=CS(=O)(=O)C1 (stereo unspecified) |  | inactive: -4.47%
51 | O=C(O)COc1ccccc1/C=C1\C(=O)Nc2ccc(Br)cc21 |  | inactive: 4.94%
52 | COc1ccc2c(c1)c(CC(=O)NCc1cc([N+](=O)[O-])ccc1O)c(C)n2C(=O)c1ccc(Cl)cc1 | inconclusive [inhibitor, single point] | 

Row | Compound | Potency | activity change, negative = growth inhibition
53 | CN(C)c1ccc(P(=O)(OCc2ccccc2)C(O)c2ccccc2F)cc1 (stereo unspecified) | inconclusive [inhibitor, single point] | 
54 | NC(=O)C1(N2CCCCC2)CCN(C(=S)Nc2ccc(F)c(Cl)c2)CC1 |  | inactive: 4.64%
55 | Cc1cc(Nc2cccc(F)c2)nc(NCc2ccccc2)n1 | active: 5.8 µM | 
56 | N#C/C(=C\c1ccc(OCCN2CCOCC2)cc1)C(=O)Nc1ccc(S(N)(=O)=O)cc1 |  | inactive: 5.66%
57 | COc1cccc(CN2c3ccccc3-c3nc(SCC(=O)Nc4cccc(C)c4)ncc3S2(=O)=O)c1 | inconclusive [inhibitor, single point] | 
58 | COc1ccc(-c2cc(C(F)(F)F)nc(NCc3ccccc3)n2)cc1OC | active: 20.6 µM | 
59 | Cc1nc2c(-c3ccc(F)cc3)c(C)[nH]n2c(=O)c1Cl | inconclusive [inhibitor, single point] | 
60 | COc1ccccc1N1CCN(C(=O)C(=O)c2c[nH]c3ccccc23)CC1 | inconclusive [inhibitor, partial curve, poor fit] | 
61 | CCN(CC)S(=O)(=O)c1ccc(/C=C/C(=O)OCC(=O)NCc2ccc3c(c2)OCO3)cc1 | inconclusive [inhibitor, single point] | 
62 | O=C(N[C@@H]1C/C=C\C[C@@H](CC(=O)N(CCO)Cc2ccccc2)C(=O)NCCOC1=O)OCC1c2ccccc2-c2ccccc21 | active: 9.2 µM | 
63 | C/C=C/c1ccc(OCCSc2nc(C)cc(=O)[nH]2)c(OC)c1 |  | inactive: -26.6%
64 | CCOC(=O)c1sc(NNC(=O)c2ccc(F)cc2)nc1C | inconclusive [inhibitor, single point] | 
65 | Cc1nc2cc(Oc3nc(NCCN(C)C)nc4ccsc34)ccc2s1 | inconclusive [inhibitor, partial curve] | 
66 | CC1(C(=O)NCc2cccs2)Cc2c(-c3ccccc3)ccnc2O1 (stereo unspecified) | active: 6.51 µM | 
67 | CCN1C(C(=O)c2ccccc2)=C(OC(=O)c2ccc(Cl)cc2)c2ccccc2S1(=O)=O | active: 23.1 µM | 
68 | Cc1oc(-c2ccccc2F)nc1CN1CCC(C(=O)NCc2ccco2)CC1 |  | inactive: -15.6%
69 | C=CCSc1cc(C)nc2c(-c3ccccc3)cnn12 | inconclusive [inhibitor, single point] | 
70 | COC(=O)c1ccc(NC(=O)c2cccc(N3C(=O)C4C5C=CC(C6CC56)C4C3=O)c2)cc1 (stereo unspecified) | active: 7.31 µM | 
71 | Cc1nnsc1SCCNC(=O)c1ccc(F)cc1 |  | inactive: -1.1%
72 | NC(=O)C1CCN(C(=O)C2CCC(=O)N(CC3CCCCC3)C2)CC1 (stereo unspecified) |  | inactive: 1.74%
73 | O=C(Nc1cccc(F)c1)NC1CC2CCCC(C1)N2C1CC1 (stereo unspecified) | inconclusive [inhibitor, single point] | 
74 | Cc1cccc(NC(=O)COC(=O)CCc2c[nH]c3ccccc23)c1C | inconclusive [inhibitor, single point] | 
75 | Cc1csc(NC(=O)c2cc(-c3ccco3)nc3ccccc23)n1 |  | inactive: -22.7%
76 | O=c1c(-c2ccc(F)cc2)nc2cnc(N3CCNCC3)nc2n1Cc1ccc(F)cc1 | inconclusive [inhibitor, single point] | 
